Results on 35 molecules are retold here after the supplement of paper PMC4604168 (melanoma cell lines).

The list shows a part of the results. Most values come without repeats; read them as rough.
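Also: cell number obtained by counting DAPI-stained nuclei in high-throughput microscope images with image analysis software, screen run in 1,536-well plates.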

The subject of the test is SkMel30. Put plainly: cell count relative to DMSO control; melanoma cells; higher = more viable cells. The note with it: library dose: low library concentration; 72 h.
As for `CC(C)(C)c1cnc(CSc2cnc(NC(=O)C3CCNCC3)s2)o1` + COc1ccc2c(c1)CCC1C2CCC2(C)C(NCCCCCCN3C(=O)C=CC3=O)CCC12 [U73122] (first compound 0.01 µM, partner dose 0.4 µM), the cell count was 114%.

`CC(C)(C)c1cnc(CSc2cnc(NC(=O)C3CCNCC3)s2)o1` + Oc1cc(-c2nc(-c3ccccc3)[nH]c2-c2ccncc2)ccc1Cl [L779450] (first compound 0.01 µM, partner dose 0.2 µM) registered a cell count of 95.8%.

In the case of `CC(C)(C)c1cnc(CSc2cnc(NC(=O)C3CCNCC3)s2)o1` + Cn1cc(/C=C2\C(=O)Nc3cccnc32)c2ccccc21 [GW441756] (first compound 0.01 µM, partner dose 0.4 µM), the cell count is 103%.

In the case of `CN(NC(=O)CC(=O)NN(C)C(=S)c1ccccc1)C(=S)c1ccccc1` + COc1cc2ncnc(Nc3ccc(Oc4ccccc4)cc3)c2cc1OC [SrcI1] (first compound 0.006 µM, partner dose 2 µM), the cell count is 102%.

In turn, `CCc1ccc(CCOc2ccc(CC3SC(=O)NC3=O)cc2)nc1` (stereo not given) [pioglitazone] + c1cc(-c2cnn3cc(-c4ccc(OCCN5CCCCC5)cc4)cnc23)ccn1 [Dorsomorphin] (first compound 2 µM, partner dose 0.4 µM) showed a cell count of 121%.

As for `Cc1ccc(NC(=O)c2cccc(N(C)C)c2)cc1NC(=O)c1ccc(O)cc1` + Cn1cc(/C=C2\C(=O)Nc3cccnc32)c2ccccc21 [GW441756] (first compound 2 µM, partner dose 0.4 µM), the cell count stood at 78.3%.

Turning to `CN(NC(=O)CC(=O)NN(C)C(=S)c1ccccc1)C(=S)c1ccccc1` + O=c1cc(-c2cccc3c2Sc2ccccc2S3)oc(N2CCOCC2)c1 [KU55933] (first compound 0.006 µM, partner dose 1 µM), the cell count stood at 77.1%.

On to `CC(C)(C)c1cnc(CSc2cnc(NC(=O)C3CCNCC3)s2)o1` + O=C1NC(=O)/C(=C/c2ccc(-c3ccc(F)cc3O)o2)S1 [AS252424] (first compound 0.01 µM, partner dose 1 µM), for which the cell count stood at 111%.

In turn, `CN(NC(=O)CC(=O)NN(C)C(=S)c1ccccc1)C(=S)c1ccccc1` + O=C(Nc1ccccc1)c1cc([N+](=O)[O-])ccc1Cl [GW9662] (first compound 0.006 µM, partner dose 2 µM) had a cell count of 93.6%.

Regarding `COc1cc2c(Oc3ccc4[nH]c(C)cc4c3F)ncnc2cc1OCCCN1CCCC1` [cediranib] + O=C(O)C(=O)Nc1sc2c(c1C(=O)O)CCNC2 [TCS401] (first compound 0.4 µM, partner dose 1.66667 µM), the cell count was determined as 109%.

For `CC(C)(C)c1cnc(CSc2cnc(NC(=O)C3CCNCC3)s2)o1` + O=c1cc(-c2cccc3c2Sc2ccccc2S3)oc(N2CCOCC2)c1 [KU55933] (first compound 0.01 µM, partner dose 1 µM), the cell count was determined as 108%.

`COc1cc2c(Oc3ccc4[nH]c(C)cc4c3F)ncnc2cc1OCCCN1CCCC1` [cediranib] + CCc1ccc(CCOc2ccc(CC3SC(=O)NC3=O)cc2)nc1 [pioglitazone] (first compound 0.4 µM, partner dose 2 µM) registered a cell count of 124%.

`CN(NC(=O)CC(=O)NN(C)C(=S)c1ccccc1)C(=S)c1ccccc1` + O=C(O)C(=O)Nc1sc2c(c1C(=O)O)CCNC2 [TCS401] (first compound 0.006 µM, partner dose 1.66667 µM) had a cell count of 79.1%.

With `CN(NC(=O)CC(=O)NN(C)C(=S)c1ccccc1)C(=S)c1ccccc1` + Cn1cc(/C=C2\C(=O)Nc3cccnc32)c2ccccc21 [GW441756] (first compound 0.006 µM, partner dose 0.4 µM), the cell count turned out to be 91.7%.

On to `Cc1ccc(NC(=O)c2cccc(N(C)C)c2)cc1NC(=O)c1ccc(O)cc1` + CCc1ccc(CCOc2ccc(CC3SC(=O)NC3=O)cc2)nc1 [pioglitazone] (first compound 2 µM, partner dose 2 µM), for which the cell count amounted to 95.2%.

For `COc1cc2c(Oc3ccc4[nH]c(C)cc4c3F)ncnc2cc1OCCCN1CCCC1` [cediranib] + N#Cc1c(O)c2c(-c3ccc(-c4ccccc4O)cc3)csc2[nH]c1=O [A769662] (first compound 0.4 µM, partner dose 2 µM), the cell count is 95.4%.

`CCc1ccc(CCOc2ccc(CC3SC(=O)NC3=O)cc2)nc1` (stereo not given) [pioglitazone] + Cc1cc([N+](=O)[O-])ccc1NS(=O)(=O)c1cc(Cl)ccc1Cl [FH535] (first compound 2 µM, partner dose 1 µM) showed a cell count of 80%.

As for `CCc1ccc(CCOc2ccc(CC3SC(=O)NC3=O)cc2)nc1` (stereo not given) [pioglitazone] + COC(=O)c1sccc1S(=O)(=O)Nc1ccc(Nc2ccccc2)cc1OC [GSK0660] (first compound 2 µM, partner dose 1 µM), the cell count was found to be 92.7%.

Molecule `COc1cc2c(Oc3ccc4[nH]c(C)cc4c3F)ncnc2cc1OCCCN1CCCC1` [cediranib] + COc1ccc(COc2ccc(Cc3cnc(N)nc3N)cc2OC)cc1 [GW2580] (first compound 0.4 µM, partner dose 1 µM) returned a cell count of 126%.

`Cc1ccc(NC(=O)c2cccc(N(C)C)c2)cc1NC(=O)c1ccc(O)cc1` + COc1ccc2c(c1)CCC1C2CCC2(C)C(NCCCCCCN3C(=O)C=CC3=O)CCC12 [U73122] (first compound 2 µM, partner dose 0.4 µM) showed a cell count of 43%.

`CN(NC(=O)CC(=O)NN(C)C(=S)c1ccccc1)C(=S)c1ccccc1` + CCc1ccc(CCOc2ccc(CC3SC(=O)NC3=O)cc2)nc1 [pioglitazone] (first compound 0.006 µM, partner dose 2 µM) returned a cell count of 94.1%.

`CN(NC(=O)CC(=O)NN(C)C(=S)c1ccccc1)C(=S)c1ccccc1` + Oc1nc(-c2ccc(C(F)(F)F)cc2)nc2c1CSCC2 [XAV939] (first compound 0.006 µM, partner dose 2 µM) yielded a cell count of 93.3%.

In turn, `CCc1ccc(CCOc2ccc(CC3SC(=O)NC3=O)cc2)nc1` (stereo not given) [pioglitazone] + CCN(CC)CCCCNc1ncc2cc(-c3cc(OC)cc(OC)c3)c(NC(=O)NC(C)(C)C)nc2n1 [PD173074] (first compound 2 µM, partner dose 0.1 µM) had a cell count of 101%.

`CN(NC(=O)CC(=O)NN(C)C(=S)c1ccccc1)C(=S)c1ccccc1` + Cc1cc([N+](=O)[O-])ccc1NS(=O)(=O)c1cc(Cl)ccc1Cl [FH535] (first compound 0.006 µM, partner dose 1 µM) returned a cell count of 102%.

As to `CC(C)(C)c1cnc(CSc2cnc(NC(=O)C3CCNCC3)s2)o1` + CCCCCCCCCCCC1=C(O)C(=O)C=C(O)C1=O [Embelin] (first compound 0.01 µM, partner dose 1.2 µM), the cell count worked out at 103%.

Turning to `Cc1ccc(NC(=O)c2cccc(N(C)C)c2)cc1NC(=O)c1ccc(O)cc1` + O=C1NC(=O)/C(=C/c2ccc(-c3ccc(F)cc3O)o2)S1 [AS252424] (first compound 2 µM, partner dose 1 µM), the cell count was found to be 91.9%.

In turn, `CC(C)(C)c1cnc(CSc2cnc(NC(=O)C3CCNCC3)s2)o1` + CCN(CC)CCCCNc1ncc2cc(-c3cc(OC)cc(OC)c3)c(NC(=O)NC(C)(C)C)nc2n1 [PD173074] (first compound 0.01 µM, partner dose 0.1 µM) displayed a cell count of 103%.

With `Cc1ccc(NC(=O)c2cccc(N(C)C)c2)cc1NC(=O)c1ccc(O)cc1` + COc1ccc(-c2ccc3c(N4CCOCC4)nc(N4C[C@@H](C)O[C@@H](C)C4)nc3n2)cc1CO [KU0063794] (first compound 2 µM, partner dose 0.02 µM), the cell count is 68.3%.

In turn, `Cc1ccc(NC(=O)c2cccc(N(C)C)c2)cc1NC(=O)c1ccc(O)cc1` + O=C(Nc1ccccc1)c1cc([N+](=O)[O-])ccc1Cl [GW9662] (first compound 2 µM, partner dose 2 µM) came in with a cell count of 69.3%.

In turn, `CCc1ccc(CCOc2ccc(CC3SC(=O)NC3=O)cc2)nc1` (stereo not given) [pioglitazone] + COc1ccc(-c2ccc3c(N4CCOCC4)nc(N4C[C@@H](C)O[C@@H](C)C4)nc3n2)cc1CO [KU0063794] (first compound 2 µM, partner dose 0.02 µM) showed a cell count of 82.3%.

As for `COc1cc2c(Oc3ccc4[nH]c(C)cc4c3F)ncnc2cc1OCCCN1CCCC1` [cediranib] + COC(=O)c1sccc1S(=O)(=O)Nc1ccc(Nc2ccccc2)cc1OC [GSK0660] (first compound 0.4 µM, partner dose 1 µM), the cell count was 102%.

In turn, `CN(NC(=O)CC(=O)NN(C)C(=S)c1ccccc1)C(=S)c1ccccc1` + COc1ccc(-c2ccc3c(N4CCOCC4)nc(N4C[C@@H](C)O[C@@H](C)C4)nc3n2)cc1CO [KU0063794] (first compound 0.006 µM, partner dose 0.02 µM) showed a cell count of 87.9%.

Molecule `CCc1ccc(CCOc2ccc(CC3SC(=O)NC3=O)cc2)nc1` (stereo not given) [pioglitazone] + COc1ccc(COc2ccc(Cc3cnc(N)nc3N)cc2OC)cc1 [GW2580] (first compound 2 µM, partner dose 1 µM) gave a cell count of 108%.

For the molecule `Cc1ccc(NC(=O)c2cccc(N(C)C)c2)cc1NC(=O)c1ccc(O)cc1` + CCCCCCCCCCCC1=C(O)C(=O)C=C(O)C1=O [Embelin] (first compound 2 µM, partner dose 1.2 µM), the cell count is 89.9%.

As for `Cc1ccc(NC(=O)c2cccc(N(C)C)c2)cc1NC(=O)c1ccc(O)cc1` + CCN(CC)CCCCNc1ncc2cc(-c3cc(OC)cc(OC)c3)c(NC(=O)NC(C)(C)C)nc2n1 [PD173074] (first compound 2 µM, partner dose 0.1 µM), the cell count came to 83.1%.
